This note sets out measurements from PubChem BioAssay (NCATS).

A short description of test [1]: qHTS Assay for Lipid Storage Modulators (AID 1519). The note with it: Drosophila S3 cells, BODIPY lipid droplet/cell ratio, laser cytometry, cells loaded with oleic acid. Summed up: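 Cells seeded at 5,000 per well were treated with compounds over a concentration series and loaded with oleic acid (400 uM, as added). Lipid droplet fluorescence (488 nm excitation, 500-530 nm channel) was read by laser-scanning cytometry and normalized to 20 uM Triacsin C.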
On the technique in general: qHTS replaces the single test concentration by a dilution series.

A short description of test [2]: qHTS Assay for Modulators of Human Peripheral Myelin Protein 22 (PMP22) Expression/Activity (AID 1967). The note with it: Cell-based PMP22 reporter, dual-color luciferase ratio; measured here: red reporter channel AC50; EF-alpha promoter control reporter in MSC80 mouse Schwann cells. An outline of the steps: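 Readout is the corrected green/red luminescence ratio after 24 h compound exposure, normalised to untreated cells (0%). Engineered MSC80 mouse Schwann cells express green luciferase from the mouse Pmp22 promoter and red luciferase from EF-alpha as internal control.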

The nature of test [3]: qHTS assay for small molecule antagonists of androgen receptor signaling (AID 588516). The note with it: AR-UAS-bla HEK293, beta-lactamase ratio, antagonist mode, 16 h. An outline of the steps: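 Cells were plated and incubated 5 h, compounds added in titration, then R1881 (10 nM final) as agonist. After 16 h at 37 C, CCF4 substrate was loaded for 2 h at room temperature and fluorescence measured.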

Test [4] is described as follows: qHTS assay for small molecule antagonists of glucocorticoid receptor signaling (AID 588533).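 Note: cells stimulated with 2 nM dexamethasone as agonist.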 The note with it: HeLa MMTV-bla, GRE beta-lactamase ratio, antagonist mode, 18 h; measured here: W530 channel AC50.
Test [5] is described as follows: qHTS assay for small molecule antagonists of peroxisome proliferator-activated receptor gamma signaling (AID 588537). The note with it: HEK293 PPARg-UAS-bla, beta-lactamase ratio, antagonist mode; measured here: W460 blue channel. Summed up: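 Antagonist mode, beta-lactamase reporter in HEK293; charcoal/dextran FBS 1%; 3000 cells/well, 37 C 6-6.5 h; cpd titration + rosiglitazone 50 nM final, 16 h 37 C; CCF4, 2 h RT; 460/530 nm; Hill fit → IC50, efficacy.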

Test [6] is described as follows: qHTS assay for small molecule antagonists of retinoid X receptor alpha signaling (AID 588546).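 Note: cells stimulated with 9-cis-retinoic acid as agonist; % is set by controls: 0 for no effect and ±100 for the full control effect.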 To be noted: HEK293T RXRa-UAS-bla, beta-lactamase ratio, antagonist mode; measured here: W530 green channel, cytotoxicity proxy. An outline of the steps:
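Beta-lactamase reporter inhibition, read as CCF4 fluorescence ratio (ex 405, em 460/530 nm) after 2 h at RT. HEK293T UAS-bla cells, 2500/well, were stimulated with 9-cis-RA at 500 or 100 nM final alongside test compound for 18 h at 37 C.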

The nature of test [7]: qHTS assay for small molecule agonists of retinoid X receptor alpha signaling (AID 588544). To be noted: HEK293T RXRa-UAS-bla, beta-lactamase reporter, 18 h; 530 nm emission.
Test [8] is described as follows: qHTS drug screen for cell cycle checkpoint inhibitors in PARPi-resistant BRCA-mutant ovarian cancer cell lines. (AID 1963452). To be noted: PEO1/OlaR viability, CellTiter-Glo luminescence, 96 h; measured here: PEO1 parental viability. An outline of the steps: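 PEO1, PEO4 and PEO1/OlaR ovarian cancer cells, 600 per well, exposed 96 h at 37C to a dilution series. Viability read by CellTiter-Glo luminescence, normalized to DMSO and empty wells; activity summarized as Z-AUC.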

The nature of test [9]: qHTS Assay for Inhibitors of PDE-IV (AID 607).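 Note: parental cells stimulated with forskolin 10 µM plus RO 20-1724 100 µM.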 The note with it: HEK293 ACTOne CNG channel cells, membrane potential fluorescence; measured here: parental cell counter-screen. Summed up:
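Cell-based read-out of cAMP via a modified cyclic nucleotide-gated channel and membrane potential dye (535/590 nm) in HEK293 cells expressing PDE4 endogenously. Compounds tested up to 22.9 uM final; 100 uM RO 20-1724 reference.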

A short description of test [10]: qHTS Validation Assay to Find Inhibitors of Chronic Active B-Cell Receptor Signaling (AID 485345). To be noted: ABC-DLBCL cells, chronic BCR signaling reporter; measured here: CBR control luciferase (viability counter). Summed up:
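Read-out: ratio of filter-corrected green (IkappaBalpha fusion) to red (native) luciferase signal in doxycycline-induced TMD8 cells after 4 h at 37C. Titration spanned 46 uM–3 nM; Data were normalised to basal cells and 10 uM MG-132 wells.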

Test [11] can be described thus: Nrf2 qHTS screen for inhibitors: Validation (AID 493153). To be noted: A549 ARE-Fluc reporter, 18-24 h; AC50: CellTiter-Fluor fluorescence read, measured here: cytotoxicity CellTiter-Fluor AC50; viability change: measured here: cytotoxicity max response. Summed up:
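Luminescence from an ARE-firefly luciferase reporter in A549 cells gives Nrf2 inhibition; an earlier CellTiter-Fluor fluorescent read flags cytotoxicity. Cells in 5% FBS OPTI-MEM received compound dilution series for 18-24 h at 37°C.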

Test [12] can be described thus: qHTS assay for small molecule antagonists of vitamin D receptor signaling (AID 588541). The note with it: HEK293T VDR-UAS-bla, beta-lactamase ratio, antagonist mode; measured here: W460 blue channel (cell viability).
Test [13] can be described thus: S16 Schwann cell PMP22 intronic element beta-lactamase assay (AID 624044). Note: nearly all actives have a fitted effect of over 15% in size. The note with it: S16 rat Schwann cells, PMP22 element beta-lactamase FRET, 24 h. Summed up: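 Rat S16 Schwann cells with beta-Lac driven by a PMP22 intronic element, compound-treated 24 h at 37 °C. LiveBLAzer FRET B/G read: 460 nm normalized to potassium clavulanate vs DMSO; 535 nm FRET as viability; concentration-effect curves classified.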

[14] abbreviates: measured here: cell count channel max response.
[15] abbreviates: measured here: lipid (BODIPY) channel AC50.
The mark [16] stands for this setting: measured here: lipid channel max response.
The mark [17] stands for this setting: measured here: cell number channel AC50.
Setting [18] is: measured here: W460 blue channel fit.

In general, AC50 refers to the midpoint of the concentration-response curve, whichever way the signal moves.

Each structure is given as a SMILES string. Several values for one entry are separate records, joined by “and”; a condition that tells them apart may be missing. Equal values may be shown once. Some of the results follow. Further columns of the screen follow, without active or inactive calls. For part of these data: Most of these compounds were active or inconclusive in the main read-out, so they are no random draw. For part of these data: Words in brackets tell the shape of the fitted curve; partial curves, single points and poor fits give uncertain potencies.
Tags give direction and shape of the fitted curve.

For `Cc1cccc(C)c1NC1=NCCCS1`, the max response is 28.5% in test [1] (setting [14]) and 30.3% in test [1] (setting [16]). The half-maximal activity concentration (AC50) in test [1] (setting [15]) was 39.8 µM [rising, single point]; in [2], 84.9 µM [falling, single point].

For the molecule `Oc1ccc(Cl)cc1Cc1cc(Cl)ccc1O`, the max response in [1] (setting [14]) was -30.9%; in test [1] (setting [16]), -45.5%; in test [6], -13%. In addition, the AC50 was 39.8 µM [falling, single point] in test [1] (setting [17]); 35.5 µM [falling, single point] in test [1] (setting [15]); 50.1 µM [falling, partial curve, poor fit] in [3] (setting [18]); 35.5 µM [rising, partial curve, poor fit] in test [3] (measured here: W530 green channel, cytotoxicity/artifact); 44.7 µM [falling, partial curve, poor fit] in [4]; 17.8 µM [falling, full curve] and 31.6 µM [falling, partial curve] in test [5].

Take `COC(C)(C)CCCC(C)C/C=C/C(C)=C/C(=O)OC(C)C` (centres undefined): the max response in test [1] (setting [14]) is 30.1%; in test [1] (setting [16]), 56.1%; in test [7] it was 45.6%. Also, the AC50 in test [1] (setting [17]) is 20 µM [rising, partial curve]; in test [1] (setting [15]) it was 35.5 µM [rising, partial curve]; in test [3] (setting [18]), 0.0112 µM [falling, full curve, poor fit]; in test [5], 50.1 µM [rising, single point] and 50.1 µM [falling, partial curve, poor fit].

Regarding `C#CCN(C)[C@H](C)Cc1ccccc1`, the max response in test [1] (setting [14]) is -15.3%; in test [1] (setting [16]), -17.2%. In addition, the half-maximal activity concentration (AC50) in test [1] (setting [15]) was 0.0112 µM [falling, full curve, poor fit]; in [8], 8.71 µM [rising, partial curve, poor fit].

For the molecule `Cc1nccc2c1[nH]c1ccccc12`, the concentration at half-maximal activity (AC50) in [9] was 15.8 µM [rising, single point]; in [1] (setting [17]), 1 µM [rising, full curve] and 3.16 µM [rising, full curve, poor fit]; in test [1] (setting [15]), 1 µM [rising, full curve] and 70.8 nM [rising, full curve, poor fit] and 3.55 µM [rising, partial curve]; in test [10], 16.4 µM [falling, single point]. For the same molecule, the max response in test [1] (setting [14]) is 109% and 26.7% and 119%; in test [1] (setting [16]), 147% and 32.4% and 154%.

Take `COc1ccc2[nH]cc(C3=CCNCC3)c2c1`: the half-maximal activity concentration (AC50) was 5.01 µM [falling, partial curve] in [9]; 1.41 µM [rising, full curve] in test [1] (setting [17]); 0.794 µM [rising, full curve] in test [1] (setting [15]). Moreover, the max response in test [1] (setting [14]) was found to be 97.8%; in test [1] (setting [16]), 3.65%.

In the case of `C[C@@H](Cc1cccc(C(F)(F)F)c1)NCCCc1ccccc1`, the AC50 was 20 µM [rising, single point] in test [9]; 35.5 µM [rising, partial curve, poor fit] in [1] (setting [17]); 39.8 µM [rising, partial curve, poor fit] in test [1] (setting [15]). In addition, the max response stood at 70% in test [1] (setting [14]) and 88% in [1] (setting [16]).

Consider `COc1cc2c(c(OC)c1OC)-c1ccc(OC)c(=O)cc1[C@@H](NC(C)=O)CC2`, for which the max response in test [1] (setting [14]) was 60.7% and 42.4%; in test [1] (setting [16]), 67.1% and 44.4%; in test [7], 12.5% and 26.4% and -16.2%; in [6], 6.8% and 1.57% and -8.04%. The half-maximal activity concentration (AC50) in [1] (setting [17]) was 3.55 µM [rising, partial curve]; in test [1] (setting [15]) it was 3.55 µM [rising, partial curve, poor fit]; in [11], 0.0731 µM [falling, full curve, poor fit]; in test [3] (setting [18]), 44.7 nM [falling, full curve, poor fit] and 14.1 nM [falling, full curve] and 126 nM [falling, full curve]; in test [4], 0.708 µM [falling, full curve, poor fit]; in test [5] it was 17.8 nM [falling, full curve, poor fit] and 1.78 nM [falling, full curve, poor fit] and 15.8 nM [falling, full curve, poor fit]. The concentration at half-maximal activity (AC50) in test [12] was 0.0562 µM [falling, full curve]; in test [13] (measured here: 460 nm blue channel) it was 0.141 µM [falling, full curve]; in test [13] (measured here: 530 nm viability channel) it was 0.1 µM [rising, full curve]. Besides, the viability change in test [11] was -18%.
